Measured values taken from the supplement of paper PMC8728848.
This is one part of the list.

Columns and labels:
Assay in all cases: glycan array binding signal (z-score within array); higher = stronger binding
Conditions in all cases: glycan notation: IUPAC condensed, linker removed
[1] = biological target: Neu5Ac(a2-3)Gal(b1-4)GlcNAc(b1-6)GalNAc
Outline: (§1)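 Columns mapping to the same glycan were averaged after glycan names were converted to IUPAC-condensed notation. The data come from 3228 arrays in the Consortium for Functional Glycomics database, limited to those with an available protein sequence. Binding is reported as a within-array Z-score averaged across arrays of one protein sequence and across linkers.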

[2] = biological target: Neu5Ac(a2-3)Gal(b1-4)GlcNAc(b1-6)[Gal(b1-3)]GalNAc
Outline: as §1

[3] = biological target: Neu5Ac(a2-3)Gal(b1-4)GlcNAc(b1-6)[Neu5Ac(a2-3)Gal(b1-3)]GalNAc
Outline: as §1

[4] = biological target: Neu5Ac(a2-3)Gal(b1-4)GlcNAc6S
Outline: as §1

[5] = biological target: Neu5Ac(a2-3)Gal(b1-4)[Fuc(a1-3)]GlcNAc
Outline: as §1

[6] = biological target: Neu5Ac(a2-3)Gal(b1-4)[Fuc(a1-3)]GlcNAc(b1-2)Man
Outline: as §1

[7] = biological target: Neu5Ac(a2-3)Gal(b1-4)[Fuc(a1-3)]GlcNAc(b1-3)Gal
Outline: as §1

[8] = biological target: Neu5Ac(a2-3)Gal(b1-4)[Fuc(a1-3)]GlcNAc(b1-3)Gal(b1-4)GlcNAc
Outline: as §1

[9] = biological target: Neu5Ac(a2-3)Gal(b1-4)[Fuc(a1-3)]GlcNAc(b1-3)Gal(b1-4)[Fuc(a1-3)]GlcNAc(b1-3)Gal(b1-4)[Fuc(a1-3)]GlcNAc
Outline: as §1

[10] = biological target: Neu5Ac(a2-3)Gal(b1-4)[Fuc(a1-3)]GlcNAc(b1-3)GalNAc
Outline: as §1

[11] = biological target: Neu5Ac(a2-3)Gal(b1-4)[Fuc(a1-3)]GlcNAc(b1-6)[Gal(b1-3)]GalNAc
Outline: as §1

[12] = biological target: Neu5Ac(a2-3)Gal(b1-4)[Fuc(a1-3)]GlcNAc(b1-6)[Neu5Ac(a2-3)Gal(b1-3)]GalNAc
Outline: as §1

[13] = biological target: Neu5Ac(a2-3)Gal(b1-4)[Fuc(a1-3)]GlcNAc6S
Outline: as §1

[14] = biological target: Neu5Ac(a2-3)Gal6S(b1-4)GlcNAc
Outline: as §1

[15] = biological target: Neu5Ac(a2-3)Gal6S(b1-4)[Fuc(a1-3)]GlcNAc
Outline: as §1

[16] = biological target: Neu5Ac(a2-3)GalNAc
Outline: as §1

[17] = biological target: Neu5Ac(a2-3)GalNAc(b1-4)GlcNAc
Outline: as §1

[18] = biological target: Neu5Ac(a2-3)[GalNAc(b1-4)]Gal(b1-4)Glc
Outline: as §1

[19] = biological target: Neu5Ac(a2-3)[GalNAc(b1-4)]Gal(b1-4)GlcNAc
Outline: as §1

[20] = biological target: Neu5Ac(a2-3)[GalNAc(b1-4)]Gal(b1-4)GlcNAc(b1-3)GalNAc
Outline: as §1

[21] = biological target: Neu5Ac(a2-3)[Neu5Ac(a2-6)]GalNAc
Outline: as §1

[22] = biological target: Neu5Ac(a2-6)Gal
Outline: as §1

B1: PX9961U-pdi-543-24-543 (Parabacteroides distasonis) (protein)
chain: EEPVGEFLPGQVESEENIEGIVTGAYAVLDGYYASDAINSGCSNWQFGDVVSDDAYKGGGGTGDQNQIHLMEIFNANPTGIDFEARWAALYEGIKRCNQAIRLLNGSEVKNKEQRLAEMRFLRGHYYFNLKIIYNQIPWIDETLVDPNEYNKKSNIEFSSDQLWEKILEEFSAAYKVLPESQADYGRPTKMAARAYMAKVYLYQSKWKECLEACDEVIQSGKYELFPDFRNVFLPENDNCSEIIFAIQLSINDGSPNNENGSYGDRLLPPGGPYPVYGFLRPTQNLVNAYKTDVKGLPYNDGKDVSENDYVDVRLDHTLARPNIPFMDVQLYDWTPREASVYGPYSPKKRLVSLNSTYYSPIWPYVNALNFYVIRYADLLLWRAEAAIETGDLETGRKYINMIRERAKNTQHVKTMDQSQDAANYKVGVYDEPFKSKNEAVQALRMERRLEMAHEGIRFFDLVRWGVADEVINAYIAKEKVFRSHLQNAHFVKGKHEYFPIPQSMIDICGTEVMKQNPGY
[1]
  glycan array binding signal (z-score): -0.154
[2]
  glycan array binding signal (z-score): -0.23
[3]
  glycan array binding signal (z-score): -0.47
[4]
  glycan array binding signal (z-score): -0.332
[5]
  glycan array binding signal (z-score): -0.372
[6]
  glycan array binding signal (z-score): -0.435
[7]
  glycan array binding signal (z-score): -0.335
[8]
  glycan array binding signal (z-score): 0.825
[9]
  glycan array binding signal (z-score): -0.269
[10]
  glycan array binding signal (z-score): 3.69
[11]
  glycan array binding signal (z-score): 0.612
[12]
  glycan array binding signal (z-score): 1.28
[13]
  glycan array binding signal (z-score): -0.317
[14]
  glycan array binding signal (z-score): -0.384
[15]
  glycan array binding signal (z-score): -0.472
[16]
  glycan array binding signal (z-score): -0.409
[17]
  glycan array binding signal (z-score): -0.459
[18]
  glycan array binding signal (z-score): -0.33
[19]
  glycan array binding signal (z-score): -0.196
[20]
  glycan array binding signal (z-score): 0.622
[21]
  glycan array binding signal (z-score): -0.466
[22]
  glycan array binding signal (z-score): -0.428
